Test results as given in the supplement of paper PMC7726561.
In all, about 1,400 sequences were measured (“thermal melting temperature (Tm) of peptide-HLA complex”: median about 60, lowest 2% from about 45 on). This is one part of the list.

B1: unnamed (peptide)
chain: APLPAQAVF
B2: unnamed (peptide)
chain: VPRGSTLPLL
B3: unnamed (peptide)
chain: FPQVGRTAL
B4: unnamed (peptide)
chain: IPAKVVREVL
B5: unnamed (peptide)
chain: IPKSAIRVI
B6: unnamed (peptide)
chain: YPTISLHAL
B7: unnamed (peptide)
chain: SPGWVRLAL
B8: unnamed (peptide)
chain: LPKNNPPTI
B9: unnamed (peptide)
chain: HPREPALGP
B10: unnamed (peptide)
chain: LPDGRIIKV
B11: unnamed (peptide)
chain: RPVHPALPF
B12: unnamed (peptide)
chain: EPRFVLRAL
B13: unnamed (peptide)
chain: LPHVPLGVI
B14: unnamed (peptide)
chain: TPFGGRLLVL
B15: unnamed (peptide)
chain: IPDASKLQFIL
B16: unnamed (peptide)
chain: APLGGRQGF
B17: unnamed (peptide)
chain: QPMPLKASL
B18: unnamed (peptide)
chain: APYRDLPASL
B19: unnamed (peptide)
chain: TPADIRSFL
B20: unnamed (peptide)
chain: VPADLRISI
B21: unnamed (peptide)
chain: APKNVTSMI
B22: unnamed (peptide)
chain: HPSDRPLML
B23: unnamed (peptide)
chain: FPRFGGSL
B24: unnamed (peptide)
chain: LPDFERESL
B25: unnamed (peptide)
chain: LPALPTQAL
B26: unnamed (peptide)
chain: HPREPLPPIQ
B27: unnamed (peptide)
chain: FPRFGGSLAL
B28: unnamed (peptide)
chain: HPAAFPLPV
B29: unnamed (peptide)
chain: KPRDVSSVELL
B30: unnamed (peptide)
chain: QPRGPLGLTDL
B31: unnamed (peptide)
chain: GPRPGSPSALL
B32: unnamed (peptide)
chain: APASPFRQL
B33: unnamed (peptide)
chain: RPNGVITGL
B34: unnamed (peptide)
chain: HAAAYRNAL
B35: unnamed (peptide)
chain: IPRGPASQF
B36: unnamed (peptide)
chain: APRSVAVSSI
B37: unnamed (peptide)
chain: SPRSVLEEM
B38: unnamed (peptide)
chain: RPRPPVLSV
B39: unnamed (peptide)
chain: TPRGAGSYTIM
B40: unnamed (peptide)
chain: SPHIPYKLL
B41: unnamed (peptide)
chain: GPRSAQVAQSL
B42: unnamed (peptide)
chain: RPISDFLTL
B43: unnamed (peptide)
chain: SPRDPENFPF
B44: unnamed (peptide)
chain: GPREAVSGL
B45: unnamed (peptide)
chain: KPRVTPVEV
B46: unnamed (peptide)
chain: APLPERNSL
B47: unnamed (peptide)
chain: APRQPGLMAQM
B48: unnamed (peptide)
chain: TPMGPGRTV
B49: unnamed (peptide)
chain: YPSDHRITTF
B50: unnamed (peptide)
chain: RGPGPLTL
B51: unnamed (peptide)
chain: QPSIPRMFL
B52: unnamed (peptide)
chain: TPSRKGLVL
B53: unnamed (peptide)
chain: KPAGPPGIL
B54: unnamed (peptide)
chain: RPFADLLGTAF
B55: unnamed (peptide)
chain: APRKPDWDL
B56: unnamed (peptide)
chain: TPRRPAGLL

These sequences were tested against HLA-B*07:02 (assay: thermal melting temperature (Tm) of peptide-HLA complex; higher = more thermostable pHLA complex). Details: C1R-B*07:02.
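Also: cell lysates heated 10 min at 37–73 °C, remaining pHLA pulled down with pan-class I antibody, peptides quantified by DIA-MS versus 37 °C, Tm where half the complex is lost.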

| Sequence | thermal melting temperature [°C] |
| --- | --- |
| B1 | 63.2 |
| B2 | 62.7 |
| B3 | 62.1 |
| B4 | 52.6 |
| B5 | 60.1 |
| B6 | 59.8 |
| B7 | 63 |
| B8 | 55.5 |
| B9 | 55.3 |
| B10 | 58.9 |
| B11 | 61.9 |
| B12 | 59.4 |
| B13 | 62.2 |
| B14 | 62.5 |
| B15 | 62.2 |
| B16 | 60.2 |
| B17 | 60.7 |
| B18 | 63.5 |
| B19 | 61.8 |

| Sequence | thermal melting temperature [°C] |
| --- | --- |
| B20 | 62.9 |
| B21 | 61.2 |
| B22 | 56.1 |
| B23 | 62.8 |
| B24 | 61.7 |
| B25 | 64.4 |
| B26 | 51.3 |
| B27 | 57.6 |
| B28 | 57.7 |
| B29 | 60.7 |
| B30 | 50.4 |
| B31 | 61.4 |
| B32 | 59.8 |
| B33 | 60.1 |
| B34 | 58.9 |
| B35 | 56.9 |
| B36 | 59.4 |
| B37 | 54.7 |
| B38 | 65.5 |

| Sequence | thermal melting temperature [°C] |
| --- | --- |
| B39 | 50.2 |
| B40 | 60.3 |
| B41 | 40.4 |
| B42 | 63.2 |
| B43 | 63.2 |
| B44 | 57.4 |
| B45 | 55.9 |
| B46 | 56.1 |
| B47 | 61.9 |
| B48 | 54.4 |
| B49 | 59.8 |
| B50 | 58.8 |
| B51 | 61.2 |
| B52 | 59 |
| B53 | 59.6 |
| B54 | 60 |
| B55 | 60.4 |
| B56 | 62 |
